{"source": "the supplement of paper PMC8728848", "binders": {"B1": {"name": "RBMC2 (Vibrio cholerae) (protein)", "chain": "KISVRSGFAIDAIGASASTLVGGTGGNLNAAVNVKDIKAIDLTWGKYYWGGYHLLALDFRMSNGSVISMGSKNYAYSKQTERFTVPAGSRIKGIKAWTAGWLLDGVQFELA"}}, "assay_in_all_cases": "glycan array binding signal (z-score within array); higher = stronger binding", "conditions_in_all_cases": "glycan notation: IUPAC condensed, linker removed", "key": {"[1]": {"biological_target": "Fuc(a1-2)Gal(b1-4)[Fuc(a1-3)]GlcNAc(b1-2)Man(a1-3)[Fuc(a1-2)Gal(b1-4)[Fuc(a1-3)]GlcNAc(b1-2)Man(a1-6)]Man(b1-4)GlcNAc(b1-4)[Fuc(a1-6)]GlcNAc", "procedure,_shortened": "(§1)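 Negative Z-scores can be read as non-binding. The Z-score is calculated within each array and then averaged across arrays of one protein sequence at different concentrations or buffers and across linkers. Arrays, 3228 in all, were curated from the Consortium for Functional Glycomics database and kept only where the protein sequence was available.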"}, "[2]": {"biological_target": "Fuc(a1-2)Gal(b1-4)[Fuc(a1-3)]GlcNAc(b1-2)[Fuc(a1-2)Gal(b1-4)[Fuc(a1-3)]GlcNAc(b1-4)]Man(a1-3)[Fuc(a1-2)Gal(b1-4)[Fuc(a1-3)]GlcNAc(b1-2)Man(a1-6)]Man(b1-4)GlcNAc(b1-4)GlcNAc", "procedure,_shortened": "as §1"}, "[3]": {"biological_target": "Fuc(a1-2)Gal(b1-4)[Fuc(a1-3)]GlcNAc(b1-3)Gal(b1-4)[Fuc(a1-3)]GlcNAc", "procedure,_shortened": "as §1"}, "[4]": {"biological_target": "Fuc(a1-2)Gal(b1-4)[Fuc(a1-3)]GlcNAc(b1-3)Gal(b1-4)[Fuc(a1-3)]GlcNAc(b1-3)Gal(b1-4)[Fuc(a1-3)]GlcNAc", "procedure,_shortened": "as §1"}, "[5]": {"biological_target": "Fuc(a1-2)Gal(b1-4)[Fuc(a1-3)]GlcNAc(b1-3)GalNAc", "procedure,_shortened": "as §1"}, "[6]": {"biological_target": "Fuc(a1-2)Gal(b1-4)[Fuc(a1-3)]GlcNAc(b1-3)[Neu5Ac(a2-6)Gal(b1-4)GlcNAc(b1-6)]Gal(b1-4)Glc", "procedure,_shortened": "as §1"}, "[7]": {"biological_target": "Fuc(a1-2)Gal3S(b1-4)GlcNAc", "procedure,_shortened": "as §1"}, "[8]": {"biological_target": "Fuc(a1-2)Gal6S(b1-3)GlcNAc", "procedure,_shortened": "as §1"}, "[9]": {"biological_target": "Fuc(a1-2)Gal6S(b1-3)GlcNAc6S", "procedure,_shortened": "as §1"}, "[10]": {"biological_target": "Fuc(a1-2)Gal6S(b1-4)Glc", "procedure,_shortened": "as §1"}, "[11]": {"biological_target": "Fuc(a1-2)Gal6S(b1-4)Glc6S", "procedure,_shortened": "as §1"}, "[12]": {"biological_target": "Fuc(a1-2)[Gal(a1-3)]Gal", "procedure,_shortened": "as §1"}, "[13]": {"biological_target": "Fuc(a1-2)[Gal(a1-3)]Gal(b1-3)GalNAc", "procedure,_shortened": "as §1"}, "[14]": {"biological_target": "Fuc(a1-2)[Gal(a1-3)]Gal(b1-3)GalNAc(b1-3)Gal(a1-4)Gal(b1-4)Glc", "procedure,_shortened": "as §1"}, "[15]": {"biological_target": "Fuc(a1-2)[Gal(a1-3)]Gal(b1-3)GlcNAc", "procedure,_shortened": "as §1"}, "[16]": {"biological_target": "Fuc(a1-2)[Gal(a1-3)]Gal(b1-3)GlcNAc(b1-2)Man(a1-3)[Fuc(a1-2)[Gal(a1-3)]Gal(b1-3)GlcNAc(b1-2)Man(a1-6)]Man(b1-4)GlcNAc(b1-4)GlcNAc", "procedure,_shortened": "as §1"}, "[17]": {"biological_target": "Fuc(a1-2)[Gal(a1-3)]Gal(b1-3)GlcNAc(b1-2)Man(a1-3)[Fuc(a1-2)[Gal(a1-3)]Gal(b1-3)GlcNAc(b1-2)Man(a1-6)]Man(b1-4)GlcNAc(b1-4)[Fuc(a1-6)]GlcNAc", "procedure,_shortened": "as §1"}, "[18]": {"biological_target": "Fuc(a1-2)[Gal(a1-3)]Gal(b1-3)GlcNAc(b1-3)GalNAc", "procedure,_shortened": "as §1"}, "[19]": {"biological_target": "Fuc(a1-2)[Gal(a1-3)]Gal(b1-3)GlcNAc(b1-6)GalNAc", "procedure,_shortened": "as §1"}, "[20]": {"biological_target": "Fuc(a1-2)[Gal(a1-3)]Gal(b1-4)Glc", "procedure,_shortened": "as §1"}, "[21]": {"biological_target": "Fuc(a1-2)[Gal(a1-3)]Gal(b1-4)GlcNAc", "procedure,_shortened": "as §1"}, "[22]": {"biological_target": "Fuc(a1-2)[Gal(a1-3)]Gal(b1-4)GlcNAc(b1-2)Man", "procedure,_shortened": "as §1"}, "[23]": {"biological_target": "Fuc(a1-2)[Gal(a1-3)]Gal(b1-4)GlcNAc(b1-2)Man(a1-3)[Fuc(a1-2)[Gal(a1-3)]Gal(b1-4)GlcNAc(b1-2)Man(a1-6)]Man(b1-4)GlcNAc(b1-4)GlcNAc", "procedure,_shortened": "as §1"}, "[24]": {"biological_target": "Fuc(a1-2)[Gal(a1-3)]Gal(b1-4)GlcNAc(b1-2)Man(a1-3)[Fuc(a1-2)[Gal(a1-3)]Gal(b1-4)GlcNAc(b1-2)Man(a1-6)]Man(b1-4)GlcNAc(b1-4)[Fuc(a1-6)]GlcNAc", "procedure,_shortened": "as §1"}, "[25]": {"biological_target": "Fuc(a1-2)[Gal(a1-3)]Gal(b1-4)GlcNAc(b1-3)GalNAc", "procedure,_shortened": "as §1"}, "[26]": {"biological_target": "Fuc(a1-2)[Gal(a1-3)]Gal(b1-4)GlcNAc(b1-3)[Fuc(a1-2)[Gal(a1-3)]Gal(b1-4)GlcNAc(b1-6)]GalNAc", "procedure,_shortened": "as §1"}, "[27]": {"biological_target": "Fuc(a1-2)[Gal(a1-3)]Gal(b1-4)GlcNAc(b1-6)GalNAc", "procedure,_shortened": "as §1"}, "[28]": {"biological_target": "Fuc(a1-2)[Gal(a1-3)]Gal(b1-4)[Fuc(a1-3)]Glc", "procedure,_shortened": "as §1"}, "[29]": {"biological_target": "Fuc(a1-2)[Gal(a1-3)]Gal(b1-4)[Fuc(a1-3)]GlcNAc", "procedure,_shortened": "as §1"}, "[30]": {"biological_target": "Fuc(a1-2)[Gal(a1-3)]Gal(b1-4)[Fuc(a1-3)]GlcNAc(b1-3)GalNAc", "procedure,_shortened": "as §1"}, "[31]": {"biological_target": "Fuc(a1-2)[Gal(a1-4)]Gal(b1-4)GlcNAc", "procedure,_shortened": "as §1"}, "[32]": {"biological_target": "Fuc(a1-2)[GalNAc(a1-3)]Gal", "procedure,_shortened": "as §1"}, "[33]": {"biological_target": "Fuc(a1-2)[GalNAc(a1-3)]Gal(b1-3)GalNAc(a1-3)[Fuc(a1-2)]Gal(b1-4)GlcNAc", "procedure,_shortened": "as §1"}, "[34]": {"biological_target": "Fuc(a1-2)[GalNAc(a1-3)]Gal(b1-3)GalNAc(b1-3)Gal(a1-4)Gal(b1-4)Glc", "procedure,_shortened": "as §1"}, "[35]": {"biological_target": "Fuc(a1-2)[GalNAc(a1-3)]Gal(b1-3)GlcNAc", "procedure,_shortened": "as §1"}, "[36]": {"biological_target": "Fuc(a1-2)[GalNAc(a1-3)]Gal(b1-3)GlcNAc(b1-2)Man(a1-3)[Fuc(a1-2)[GalNAc(a1-3)]Gal(b1-3)GlcNAc(b1-2)Man(a1-6)]Man(b1-4)GlcNAc(b1-4)GlcNAc", "procedure,_shortened": "as §1"}, "[37]": {"biological_target": "Fuc(a1-2)[GalNAc(a1-3)]Gal(b1-3)GlcNAc(b1-2)Man(a1-3)[Fuc(a1-2)[GalNAc(a1-3)]Gal(b1-3)GlcNAc(b1-2)Man(a1-6)]Man(b1-4)GlcNAc(b1-4)[Fuc(a1-6)]GlcNAc", "procedure,_shortened": "as §1"}, "[38]": {"biological_target": "Fuc(a1-2)[GalNAc(a1-3)]Gal(b1-3)GlcNAc(b1-3)GalNAc", "procedure,_shortened": "as §1"}}, "note": "The other results are listed elsewhere or left out."}
{"binder": "B1", "values": [{"measurement": "glycan array binding signal (z-score)", "setting": "[1]", "value": 0.413}, {"measurement": "glycan array binding signal (z-score)", "setting": "[2]", "value": -0.23}, {"measurement": "glycan array binding signal (z-score)", "setting": "[3]", "value": -0.291}, {"measurement": "glycan array binding signal (z-score)", "setting": "[4]", "value": -0.273}, {"measurement": "glycan array binding signal (z-score)", "setting": "[5]", "value": -0.365}, {"measurement": "glycan array binding signal (z-score)", "setting": "[6]", "value": -0.425}, {"measurement": "glycan array binding signal (z-score)", "setting": "[7]", "value": -0.403}, {"measurement": "glycan array binding signal (z-score)", "setting": "[8]", "value": -0.443}, {"measurement": "glycan array binding signal (z-score)", "setting": "[9]", "value": -0.121}, {"measurement": "glycan array binding signal (z-score)", "setting": "[10]", "value": -0.38}, {"measurement": "glycan array binding signal (z-score)", "setting": "[11]", "value": -0.398}, {"measurement": "glycan array binding signal (z-score)", "setting": "[12]", "value": -0.326}, {"measurement": "glycan array binding signal (z-score)", "setting": "[13]", "value": -0.353}, {"measurement": "glycan array binding signal (z-score)", "setting": "[14]", "value": -0.396}, {"measurement": "glycan array binding signal (z-score)", "setting": "[15]", "value": -0.409}, {"measurement": "glycan array binding signal (z-score)", "setting": "[16]", "value": 0}, {"measurement": "glycan array binding signal (z-score)", "setting": "[17]", "value": -0.367}, {"measurement": "glycan array binding signal (z-score)", "setting": "[18]", "value": -0.278}, {"measurement": "glycan array binding signal (z-score)", "setting": "[19]", "value": -0.122}, {"measurement": "glycan array binding signal (z-score)", "setting": "[20]", "value": -0.428}, {"measurement": "glycan array binding signal (z-score)", "setting": "[21]", "value": -0.444}, {"measurement": "glycan array binding signal (z-score)", "setting": "[22]", "value": -0.275}, {"measurement": "glycan array binding signal (z-score)", "setting": "[23]", "value": 0.631}, {"measurement": "glycan array binding signal (z-score)", "setting": "[24]", "value": -0.015}, {"measurement": "glycan array binding signal (z-score)", "setting": "[25]", "value": -0.249}, {"measurement": "glycan array binding signal (z-score)", "setting": "[26]", "value": 0.162}, {"measurement": "glycan array binding signal (z-score)", "setting": "[27]", "value": -0.369}, {"measurement": "glycan array binding signal (z-score)", "setting": "[28]", "value": -0.432}, {"measurement": "glycan array binding signal (z-score)", "setting": "[29]", "value": -0.339}, {"measurement": "glycan array binding signal (z-score)", "setting": "[30]", "value": -0.301}, {"measurement": "glycan array binding signal (z-score)", "setting": "[31]", "value": -0.391}, {"measurement": "glycan array binding signal (z-score)", "setting": "[32]", "value": -0.265}, {"measurement": "glycan array binding signal (z-score)", "setting": "[33]", "value": -0.357}, {"measurement": "glycan array binding signal (z-score)", "setting": "[34]", "value": -0.183}, {"measurement": "glycan array binding signal (z-score)", "setting": "[35]", "value": -0.306}, {"measurement": "glycan array binding signal (z-score)", "setting": "[36]", "value": -0.316}, {"measurement": "glycan array binding signal (z-score)", "setting": "[37]", "value": -0.287}, {"measurement": "glycan array binding signal (z-score)", "setting": "[38]", "value": -0.328}]}
